# Laboratory results taken from PubChem BioAssay AID686978 (National Center for Advancing Translational Sciences (NCATS), 2013).
# Screen size: about 420,000 compounds; about 64,000 (15%) were called active. The shares of active, inactive and inconclusive entries below differ from those in the screen. Calls follow the shape of the dose curve; as a rule, active = well fitted inhibition curve with a large enough effect; inconclusive = small, poorly fitted or top-dose-only effect; inactive = flat fitted curve, though single readings scatter. Potencies of inconclusive entries are left out as doubtful fits.
# Assay: qHTS for Inhibitors of human tyrosyl-DNA phosphodiesterase 1 (TDP1): qHTS in cells in absence of CPT; also: nearly all actives have a fitted effect of over 55% in size
# Settings: DT40 Tdp1-/- hTDP1 cells, no CPT, ATP luminescence, 48 h; activity change, negative = growth inhibition: at 46.2 µM (top of the series) unless noted
# Method in brief: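 Seeded 400 DT40-hTDP1 cells/well (vehicle DMSO, no 20 nM CPT); pinned compounds; ≥48 hr at 37 °C; CellTiter-Glo luminescence as viability measure.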
# % is scaled to controls: 0 for no effect and ±100 for the full control effect; potency is read from the fitted curve at half-maximal effect; tags tell the direction and shape of the fitted curve.
Compound,Potency,"activity change, negative = growth inhibition"
[N-]=[N+]=CC(=O)CNC(=O)[C@@H](Cc1ccccc1)N1C(=O)c2ccccc2C1=O,inactive,–
CN1CCN(C(=O)C(N)Cc2ccccc2)CC1 (stereo unspecified),inactive,–
CCN(CC)CCN(C(=O)c1ccccc1OC)c1nc2ccc(F)cc2s1,"inconclusive [inhibitor, partial curve]",–
COc1ccc(OC)c(/C=C/C(=O)OCC(=O)N2C(C)CCCC2C)c1 (stereo unspecified),active: 10.3 µM,–
CSc1nnnn1-c1c(C)cc(C)cc1C,inactive,–
COc1ccc(C(=O)Nc2ccc(NC(=O)c3cccs3)cc2)cc1Cl,active: 18.4 µM,–
COc1cc(C)ccc1S(=O)(=O)NC(=O)C1(C)CCN1C(=O)Cc1ccccc1Cl (stereo unspecified),inactive,–
CCCCN(C(=O)CSc1nn(-c2ccc(F)cc2)c(=S)s1)c1c(N)n(CCCC)c(=O)[nH]c1=O,active: 29.1 µM,–
COCCCNC(=O)C[C@@H]1C[C@@]2(C(=O)OC)CCCCC=C2N(CCC2=CCCCC2)C1=O,active: 16.4 µM,–
Cc1cccc(NC(=O)CN2CCc3cc4c(cc3C2C)OCCCO4)c1 (stereo unspecified),"inconclusive [inhibitor, single point]",–
C=CCOc1cccn2c(N(C)C(=O)c3ccc(OC)cc3)c(CC)nc12,inactive,–
CCN1CCc2c(OCC(=O)Nc3cccc(C)c3)cccc2C1=O,"inconclusive [inhibitor, single point]",–
Cc1ncc(CN2CCC(C(=O)Nc3ccc(Oc4cccnc4)cc3)CC2)cn1,inactive,–
CCOc1ccc2ccccc2c1CNCCCN1CCOCC1,"inconclusive [inhibitor, single point]",–
COc1ccc2c(c1)c(C(=O)N/N=C/c1ccc(Cl)cc1)c(C)n2C,"inconclusive [inhibitor, partial curve, poor fit]",–
O=C(COC(=O)/C=C/c1ccc(Cl)cc1)NC1CCS(=O)(=O)C1 (stereo unspecified),active: 18.4 µM,–
CN(C)c1nc(N)nc(Cn2nnc(-c3ccc(C(F)(F)F)cc3)n2)n1,inactive,–
CCOC(=O)c1ccc(NC(=O)Cn2nnc(-c3ccccc3)n2)cc1,"inconclusive [inhibitor, partial curve]",–
CC(=O)Nc1ccc(NC(=O)C2(C)Cc3c(-c4cccc(C(F)(F)F)c4)ccnc3O2)cc1 (stereo unspecified),"inconclusive [inhibitor, single point]",–
Cn1c2c(c(=O)n(C)c1=O)C1(C(=O)Nc3ccccc31)C(C#N)=C(N)O2 (stereo unspecified),"inconclusive [inhibitor, single point]",–
C=CCn1c(=S)[nH]c2sccc2c1=O,"inconclusive [inhibitor, single point]",–
CCCCN(CC)CCNC(=O)Cn1c(=O)c2cccn2c2cccnc21,"inconclusive [inhibitor, single point]",–
Fc1ccc(-c2nnc3ccc(N4CCCC4)nn23)cc1,"inconclusive [inhibitor, single point]",–
COc1ccc(CC(=O)N2CCCc3ccccc32)cc1OC,–,inconclusive: -32.2% [inhibitor]

Compound,Potency,"activity change, negative = growth inhibition"
COc1ccc(NC(=O)CSC2=Nc3ccccc3C3=NC(Cc4ccccc4)C(=O)N23)cc1Cl (stereo unspecified),"inconclusive [inhibitor, single point]",–
COc1cc(CNC(=O)c2cc(-c3cc(Cl)ccc3OC)n[nH]2)cc(OC)c1,"inconclusive [inhibitor, single point]",–
COC(=O)C1=C(C)N(Cc2ccccc2)C(=S)N[C@H]1c1ccc(Br)cc1,inactive,–
COc1ccc(NC(=O)CN(c2ccc([N+](=O)[O-])cc2)S(=O)(=O)c2ccccc2)cc1,"inconclusive [inhibitor, single point]",–
COC(=O)c1cccc(C(=O)N2CCc3c(cnc(C)c3CNC(=O)c3ccsc3)C2)c1,inactive,–
Fc1ccc(-c2nc3ccc(Cl)cn3c2Cc2cccc(Cl)c2)cc1,"inconclusive [inhibitor, single point]",–
COc1ccc(-c2nnc3ccc(SC)nn23)cc1,"inconclusive [inhibitor, single point]",–
CN(Cc1ccccc1)C(=O)Cn1ncc2c3ccccc3n(Cc3cccc(Cl)c3)c2c1=O,"inconclusive [inhibitor, single point]",–
CCN(CC)C(=O)COCc1cc(-c2ccc3c(c2)OCO3)on1,"inconclusive [inhibitor, partial curve]",–
Cc1c(CCOC(=O)CC23CC4CC(CC(C)(C4)C2)C3)sc[n+]1Cc1ccc([N+](=O)[O-])cc1,active: 18.4 µM,–
Cc1ccc(NC(=O)c2cc(CC(C)C)nc3ccccc23)cc1,"inconclusive [inhibitor, single point]",–
COc1ccc(CCNC(=O)CSc2nc(C)cs2)cc1,–,inconclusive: -30.2% [inhibitor]
CCOc1ccc(NC(=O)NCc2cccn2C)cc1,inactive,–
CC(C)Sc1nnc(Cn2c(=O)sc3ccccc32)n1-c1ccccc1,"inconclusive [inhibitor, partial curve]",–
CCOC(=O)CN(C(=O)CSc1nnc(CNc2ccc(C)cc2C)n1CC)c1ccccc1,"inconclusive [inhibitor, partial curve]",–
O=S(=O)(Nc1cccnc1)c1ccc(C2CCCCC2)cc1,"inconclusive [inhibitor, partial curve, poor fit]",–
CCCSc1nc2sc3c(c2c(=O)[nH]1)CCN(Cc1ccccc1)C3,active: 20.6 µM,–
Cc1[nH][nH]c(=O)c1C(c1cc(Br)ccc1O)c1c(C)[nH][nH]c1=O,"inconclusive [inhibitor, single point]",–
Cc1ccc(Cl)cc1Nc1sc(C(=O)c2ccccc2)c(N)c1S(=O)(=O)c1ccccc1,"inconclusive [inhibitor, partial curve, poor fit]",–
Cc1cc(C)cc(NC(=O)CN2CCC(NC(=O)c3ccccc3F)CC2)c1,inactive,–
Cc1cccc(/C=C2/Sc3ccc(C(=O)NCCN4CCCC4)cc3NC2=O)c1,active: 23.1 µM,–
Clc1ccccc1CSc1nnc(Cn2cnc3ccccc32)n1-c1ccccc1,"inconclusive [inhibitor, single point]",–
CN(Cc1ccccc1)C(=O)c1cccc(NC(=O)Cc2ccc(NC(=O)C3CCCN(C(=O)C4CCC4)C3)cc2)c1 (stereo unspecified),"inconclusive [inhibitor, single point]",–
CCOC(=O)CSc1nc(N)c(C#N)cc1C#N,active: 16.4 µM,–

Compound,Potency,"activity change, negative = growth inhibition"
CCOC(=O)C1=C(CC)OC(N)=C(C#N)C1c1ccsc1 (stereo unspecified),"inconclusive [inhibitor, full curve, poor fit]",–
Cc1ccc(O)c(C(=O)c2cc(C#N)c3nc4ccccc4n3c2)c1,active: 9.2 µM,–
O=C1CC(Nc2ccc(N3CCOCC3)cc2)C(=O)N1CCc1ccccc1 (stereo unspecified),"inconclusive [inhibitor, single point]",–
CCCCn1c(N)c(N(CCOC)C(=O)CSCc2cccc(C)c2)c(=O)[nH]c1=O,inactive,–
Cc1cc(C)c2oc(-c3cccc(NC(=O)c4cc5ccccc5o4)c3)nc2c1,"inconclusive [inhibitor, single point]",–
CC(C)OC(=O)/C(=C\c1ccc2c(c1)c1ccccc1n2C)NC(=O)c1ccccc1,active: 20.6 µM,–
Cc1ccc2c(c1)c1nnc(SCC(=O)Nc3ccc(N(C)C)cc3)nc1n2CC(=O)O,inactive,–
CC(C)(C)c1ccc(C(=O)N2CC(=O)Nc3ccc(F)cc3C2c2ccc(F)cc2)cc1 (stereo unspecified),active: 18.4 µM,–
COc1ccc(N(CC(=O)NC(C)(C)C)C(=O)c2ccco2)cc1,inactive,–
Cc1ccc(-c2csc(NC3OC(=O)c4ccccc43)n2)cc1 (stereo unspecified),"inconclusive [inhibitor, single point]",–
CN1CCN(CCC(=O)N/N=C/C=C2\N(C)c3ccccc3C2(C)C)CC1,"inconclusive [inhibitor, full curve, poor fit]",–
Cc1c([N+](=O)[O-])cnc2ccccc12,"inconclusive [inhibitor, single point]",–
CCOC(=O)C1=C(c2ccccc2)N=c2s/c(=C\c3cc(OC)c(OC)c(OC)c3)c(=O)n2C1c1cccs1 (stereo unspecified),active: 6.51 µM,–
CCOc1ccccc1C(=O)NCC(=O)Nc1ccc2c(c1)OCO2,inactive,–
Cc1cc2cc(CN(Cc3cccs3)S(=O)(=O)c3ccc4c(c3)OCCO4)c(=O)[nH]c2cc1C,"inconclusive [inhibitor, partial curve, poor fit]",–
COc1ccc(C2=NN(C(=O)CSC3=NN4CCCC(=O)N=C4S3)C(c3cccc(OC)c3OC)C2)cc1 (stereo unspecified),"inconclusive [inhibitor, partial curve, poor fit]",–
CCc1cnc2c(c1SCC(=O)NCc1ccccc1)c(=O)n(C)c(=O)n2C,"inconclusive [inhibitor, single point]",–
CCOC(=O)c1sc(NC(=O)c2ccc(Br)o2)cc1C,active: 16.4 µM,–
O=P(c1ccccc1)(c1ccccc1)c1ccccc1C(Br)Br,"inconclusive [inhibitor, partial curve, poor fit]",–
CC(C(=O)OCC(=O)Nc1ccccc1OC(F)F)N1C(=O)C2CC=CCC2C1=O (stereo unspecified),inactive,–
CCOC(=O)CC(NC(=O)c1ccc(C)cc1)c1ccc(C)cc1 (stereo unspecified),"inconclusive [inhibitor, single point]",–
CCS(=O)(=O)N1CCCC(C(=O)NC2CCCC2)C1 (stereo unspecified),inactive,–
CCOC(=O)C1(C)CCCN(C(=O)c2ccc(OC)cc2)C1 (stereo unspecified),inactive,–
